Experimental data as given in PubChem BioAssay AID504832 (National Center for Advancing Translational Sciences (NCATS), 2011).
Screen size: about 310,000 compounds; about 18,000 (5.8%) were called active. The shares of active, inactive and inconclusive entries below differ from those in the screen. Calls follow the shape of the dose curve; as a rule, active = well fitted inhibition curve with a large enough effect; inconclusive = small, poorly fitted or top-dose-only effect, or another doubt; inactive = no such curve, though single readings can be large or run the other way. No potency is given beside an inconclusive call; the fits are too rough.

test: Primary qHTS for delayed death inhibitors of the malarial parasite plastid, 48 hour incubation; conditions: P. falciparum luciferase growth in erythrocytes; series mostly up to 28.7 µM
In short: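 Read-out is firefly luciferase luminescence from an integrated reporter in P. falciparum, so falling signal marks reduced parasite growth. Infected erythrocytes were at 2% hematocrit and 0.1% parasitemia (final) in Albumax-supplemented RPMI 1640.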
% is scaled to controls: 0 for no effect and ±100 for the full control effect; potency is read from the fitted curve at half-maximal effect; tags tell the direction and shape of the fitted curve.

Compound | Potency | activity change, negative = inhibition
O=C(NNC(=O)c1ccc([N+](=O)[O-])o1)c1ccccc1 | inconclusive [inhibitor, single point] | 
Cc1ccc(SCCNC(=O)c2ccccc2)cc1 | inconclusive [inhibitor, single point] | 
COc1ccccc1C(=O)Nc1ccc2c(c1)nc1n2CCN(Cc2ccccc2)C1 | inconclusive [inhibitor, partial curve, poor fit] | 
CCN(CC)C(=O)c1ccc2nc3ccccc3nc2c1 | inactive | 
Cc1ccc(CN2C3CCCC2CC(NC(=S)NCc2ccccc2)C3)cc1 (centres undefined) | active: 11.7 µM | 
CCc1ccccc1NC(=O)CN(c1ccc(OC)cc1OC)S(=O)(=O)c1ccccc1[N+](=O)[O-] | inconclusive [inhibitor, partial curve] | 
O=C(NCc1nnc(SCC(=O)N2CCN(c3ccccc3)CC2)o1)c1c(F)cccc1F | inconclusive [inhibitor, single point] | 
CC1=C(C(=O)N2CCc3ccccc32)C2(CCC(C)CC2)OC1=O (centres undefined) | inconclusive [inhibitor, partial curve] | 
O=C(c1ccc(N2CCCC2)c([N+](=O)[O-])c1)N1CCc2ccccc2C1 | inconclusive [inhibitor, partial curve, poor fit] | 
O=C(O)c1ccc(S(=O)(=O)c2ccc3c(c2)C(=O)N(NC(=O)c2ccncc2)C3=O)cc1 | inactive | 
Cc1cccc(C)c1NC(=O)Cn1nnc(-c2ccc(CN3CCC(C)CC3)cc2)n1 | inconclusive [inhibitor, partial curve, poor fit] | 
COC(=O)C1=C(C)N(Cc2ccccc2)C(=NCCCCO)N[C@H]1c1cccc(C(F)(F)F)c1 | inconclusive [inhibitor, partial curve, poor fit] | 
Cc1cccc(/C=C/c2onc(C)c2S(=O)(=O)N2CCC(C(=O)N3CCC(C)CC3)CC2)c1 | inconclusive [inhibitor, single point] | 
FC(F)(F)c1ccccc1-n1ccnc1 | inconclusive [inhibitor, partial curve, poor fit] | 
COc1ccc(CCN2C(=O)C3C4CCC(C4=C(C)C)C3C2=O)cc1OC (centres undefined) | inactive | 
Cc1nn(-c2ccccc2)c(Cl)c1/C=C1\SC(=S)NC1=O | inconclusive [inhibitor, single point] | 
CCCc1c(C(=O)N/N=C/c2ccncc2)nnn1-c1nonc1N | inactive | 
O=C(O)C1C2C=CC3(CN(C/C=C/c4ccccc4)C(=O)C13)O2 (centres undefined) | inconclusive [inhibitor, full curve, poor fit] | 
CCCCNC(=O)CCCN1C(=O)c2cccnc2Sc2ccccc21 | inactive | 
O=C(O)c1cccc(Cn2c(Cl)c(/C=N/Nc3ccccc3)sc2=O)c1 | inconclusive [inhibitor, single point] | 
CCCCN(Cc1ccccc1)S(=O)(=O)c1cc(Br)cc2c1N(C(C)=O)C(C)C2 (centres undefined) | active: 11.7 µM | 
CS(=O)(=O)Nc1cccc(C2=NN(C(=O)c3ccc(F)cc3)C(c3cccs3)C2)c1 (centres undefined) |  | inactive: 0.119% [at 0.00184 µM]

Compound | Potency | activity change, negative = inhibition
O=C(N/N=C\c1cccc(F)c1)c1ccc(Cn2cc(Br)c([N+](=O)[O-])n2)o1 | inconclusive [inhibitor, partial curve, poor fit] | 
CCc1ccc(N(C(=O)c2csnn2)C(C(=O)NC2CCCCC2)c2ccncc2)cc1 (centres undefined) | inactive | 
CN(C(=O)c1cccc([N+](=O)[O-])c1)c1ccccc1C(=O)NCc1ccccc1 | inactive | 
CCN1CCN(Cc2c(O)ccc3c2O/C(=C\C=C\c2ccccc2)C3=O)CC1 | active: 1.65 µM | 
CCc1ccccc1NC(=O)C1=CC(c2ccc(OC)c(OC)c2)=NS(=O)(=O)N1C | inconclusive [inhibitor, partial curve, poor fit] | 
CCOc1ccc(CN(C)C(=O)CNC(=O)C2CCCCC2)cc1OC | inconclusive [inhibitor, single point] | 
O=C(NCCc1ccccc1)c1nc(CS(=O)(=O)c2ccc(Cl)cc2)no1 | inconclusive [inhibitor, single point] | 
COc1ccccc1Nc1nc(N)nc(CN2CCN(Cc3ccc4c(c3)OCO4)CC2)n1 | inconclusive [inhibitor, single point] | 
O=C(Nc1cn(-c2ccccc2)nc1-c1ccc(Cl)cc1)c1ccccc1 | inactive | 
CC(C)(C)C(=O)/C(=C\c1cccc([N+](=O)[O-])c1)n1cncn1 | active: 13.1 µM | 
N#CCCN(C(=O)COC(=O)CCNS(=O)(=O)c1ccccc1)c1ccccc1 | inactive | 
COc1cc2c(cc1Cl)/C(=C\CCN(C)C)c1ccccc1S2 | active: 10.4 µM | 
CCOC(=O)c1ccc2nc(C)c3c(c2c1)OC(C)C3 (centres undefined) | inconclusive [inhibitor, single point] | 
COc1cc(C(F)(F)F)c(C(=O)N(C)Cc2cc(Cl)cc(Cl)c2)cn1 | inconclusive [inhibitor, single point] | 
CNc1c([N+](=O)[O-])cnn1-c1ccccc1Cl | inactive | 
C=CCn1c(C)cc(C2=NNC(=NCc3ccccc3)SC2)c1C | inactive | 
COc1ccc(NC(=O)COC(=O)CCCC2=NS(=O)(=O)c3ccccc3N2)cc1 | inactive | 
CCCc1noc2c1/C(=N\O)CC(CC(C)SCC)C2 (centres undefined) | inconclusive [inhibitor, single point] | 
COc1ccc(Cl)cc1NC(=O)CN1C(=O)NC(C)(Cc2ccc(OC)c(OC)c2)C1=O (centres undefined) | inconclusive [inhibitor, partial curve] | 
CC1=Nc2ccccc2N=C(NC(=O)CSc2nnnn2-c2ccccc2)C1c1ccccc1 (centres undefined) | inconclusive [inhibitor, single point] | 
COc1ccc(OCc2nnc(NC(=O)Nc3ccc(F)cc3)s2)cc1 | inconclusive [inhibitor, single point] | 
CC(C)(C)C1CCC(=NNC(=S)NCc2ccccc2)CC1 (centres undefined) | inconclusive [inhibitor, single point] | 
